From the supplement of paper PMC11417369 come the findings set out here.

± gives the standard deviation of the averaged measurements. Some of the results follow.

For the test, the system named is PfAP2-EXP AP2 domain (GST-tagged). As to the kind of experiment: gcPBM binding intensity (ln(normalized median fluorescence intensity)); higher = stronger DNA binding. The method, boiled down:
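In this array assay, P. falciparum DNA-binding domains with a GST tag, expressed in E. coli, were applied for 1 h to primer-extended double-stranded 36-bp intergenic genomic probes and negative controls on an Agilent 4 × 180k array. Bound protein was visualised with Alexa488 anti-GST antibody at 488 nm. Binding intensity is the highest Masliner-normalised natural-log median intensity across replicate spots of either probe orientation.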
With “AGAAATATGTTGAAGCATTTATAATGTAGATATAAG [GTGCAC_negctrl_site640]”, the “gcPBM binding intensity (ln)” value was found to be 8.52 ± 0.42.
“AAAAAAAAAAAAAATACACACAAACACAAATTAAAT [CACACA_site5982]”: the “gcPBM binding intensity (ln)” value amounted to 8.71 ± 0.59.
In the case of “GTAATATTATAATATACACACATAGAATATATATAT [CACACA_site413]”, the “gcPBM binding intensity (ln)” value is 9.29 ± 0.15.
As for “AAAAAAAAAAAAAACACACACATATAACATATTTAA [CACACA_site6745]”, the “gcPBM binding intensity (ln)” value amounted to 8.46 ± 0.34.
With “TGTTTACACTTTTTTTGTACACATAATTTTATTTGA [XGTACX_site3760]” the figure was 8.69 ± 0.3; with “TATTCTAGTCTGCTTACACACATATTTATATTTATA [CACACA_site7432]”, 8.81 ± 0.54.
The same measure for “TAATATTTTATTTTTGTTGTGGATCCAAAAAAAAAA [CACACA_negctrl_site846]”: 8.32 ± 0.47; for “CTATATATTTAAAAAAGTACAAATATAAAAATATAT [XGTACX_site676]”: 8.74 ± 0.25; for “TATATATATATATATGTATGCATGTCCTTTTTTATT [TGCATGCA_site344]”: 10.1 ± 0.42.
With TTTTTTTTTTTTGTAGTGCAAATTAAAAATATATGT the figure was 8.44 ± 0.092; with “ATTTTTTTTAAACGAAGTACAATTTGTGCATTGGAA [XGTACX_site8109]”, 8.655 ± 0.078.
As for “AATATATGGTTTCATGATATAAAATTCAATTTAATG [GTGCAC_negctrl_site610]”, the “gcPBM binding intensity (ln)” value was determined as 8.12 ± 0.42.
Regarding “TGTTTATCATATTTGTGTCCTCATTTTTTAGTATCA [XGTACX_site947]”, the “gcPBM binding intensity (ln)” value came to 8.81 ± 0.29.
For “ATTTTTTTTTTTTTTTTTTTTTTTTTTTTTTTATGC [CACACA_negctrl_site1018]”, the “gcPBM binding intensity (ln)” value turned out to be 7.82 ± 0.59.
With “TTATTTCTTCAGAAAAAATTAAAAAATTAAACAATA [CACACA_negctrl_site169]” the figure was 8.33 ± 0.4; with “AAATAAAATTATAATACATGCATACATACATATATA [TGCATGCA_site69]”, 8.48 ± 0.44; with “TATAAATACATACGTACACACAAATATTAAAATATA [CACACA_site5129]”, 8.52 ± 0.38.
With “ATGTTACTCAGACACACACACATAAAAAAACAAAAA [CACACA_site3249]” the figure was 8.62 ± 0.72.
In the case of “TGTGTTAATATATGAAGTACACAATACACACTAATT [XGTACX_site5469]”, the “gcPBM binding intensity (ln)” value worked out at 8.8 ± 0.29.
The same measure for “TAATATCATTTATGGGGTACCTCCTATTCTTATTTA [XGTACX_site1839]”: 8.72 ± 0.39.
With “CGAACTGCACTTTTTAGTACTTAATAATTATTTTTT [XGTACX_site2446]” the figure was 8.88 ± 0.2.
The same measure for “TCATATGTTAAATGATGTACATTTAATATAAATAAA [XGTACX_site900]”: 8.38 ± 0.15.
With “AAAAAAAACATCCTCACACATATATATATATATATA [CACACA_site5166]”, the “gcPBM binding intensity (ln)” value was 10.1 ± 0.46.
The same measure for “ATATATATGAATACATGTACGTATTTGTCTATGTAT [XGTACX_site8306]”: 8.71 ± 0.35; for “AATAAAGGAAATAAATAATTTATTTTGTAAAATATG [CACACA_negctrl_site97]”: 8.46 ± 0.39.
With “GCATATATTATATATTTATTTATTTTTTTTTTTTAA [GTGCAC_negctrl_site193]” the figure was 8.32 ± 0.46; with “CAATGTTAACATATTACACACATATGTATTTATAAT [CACACA_site5512]”, 8.73 ± 0.47.
The same measure for “TTCGTTATAATTGAATTTACAATATGCTTTATAATG [XGTACX_negctrl_site238]”: 8.38 ± 0.36.
In the case of “ATATATACAAAGGATTAACACACATATTATTATATA [CACACA_site8563]”, the “gcPBM binding intensity (ln)” value was found to be 8.36 ± 0.46.
Turning to “TAAATTACATGAAATTGTACATGAATATTAAATATA [XGTACX_site3909]”, the “gcPBM binding intensity (ln)” value is 8.38 ± 0.42.
With “GTGTACAGTTTTTGCACACATATAAATAAAAAAAAG [CACACA_site3599]” the figure was 8.68 ± 0.3; with “AAAATATTTATATTTACACACACATAATACATATAT [CACACA_site32]”, 8.54 ± 0.45; with “CTTATAAAAAAAATTGCACACATATTATACAGGACG [CACACA_site8133]”, 8.67 ± 0.33.
In the case of “TGTATATATTTTAATAGTACTCATATATATATATAT [XGTACX_site7216]”, the “gcPBM binding intensity (ln)” value came out at 10.1 ± 0.45.
“ATAACTTTCTATACATGTACACATATATGGTATTTT [XGTACX_site7535]”: the “gcPBM binding intensity (ln)” value was determined as 9.04 ± 0.35.
The same measure for “ATAAATTTTTTATGAACACACAAATACACCCACTCA [CACACA_site5465]”: 9.14 ± 0.38; for “AATATTTTTTTTTAAACATGCATATTTGCATTACCC [TGCATGCA_site437]”: 8.58 ± 0.41; for “TTTACATTTATGTGCACACATTCCATTTGAAAGTAA [CACACA_site1953]”: 8.88 ± 0.18.
With “TTTTTTTTAATGAGAAGTACGGTCTTTCAATGTCTT [XGTACX_site6773]” the figure was 8.28 ± 0.41; with “ATTGTGTTGACGGGTGACCCTTCCAGAGAAATAGAA [CACACA_negctrl_site1362]”, 8.6 ± 0.51.
The same measure for “CATTAACAAATAAATGCACACATATATATAAATAAT [CACACA_site7892]”: 8.69 ± 0.014.
Consider “AATTTATTAGATAGATGTACATTTTAATAAAAGTAG [XGTACX_site6819]”, for which the “gcPBM binding intensity (ln)” value is 8.46 ± 0.26.
As to “TAAAAATTAAAACTGGGTACAAATTTATAGATAGCC [XGTACX_site8075]”, the “gcPBM binding intensity (ln)” value was 8.79 ± 0.33.
The same measure for “TCCCCTTAATTTAAAACACACAAACAAATAAGTTAG [CACACA_site5973]”: 8.52 ± 0.39.
